Assay results reported in the supplement of paper PMC10126150.
Values marked as one replicate rest on one cluster of the flow cell; about a third of the high ones do not repeat.

tested on: ATP; assay: switch fluorescence ratio, 500 uM ATP over buffer (Cy3 cluster intensity, sum of 5 cycles each) (fold (ratio)); higher = stronger signal-on switching upon ATP binding; sequences stand for … in TCGTCGGCAGCGTCAGATGTGTATAAGAGACAGTTTTTTTTTTTTTTTTTTTTTTTTT…TC; settings: aptamer strand: ATP DNA aptamer (quencher-CACCTGGGGGAGTATTGCGGAGGAAGG + anchor), 100 nM annealed; ATP concentration: 500 uM; one replicate
How it was run: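 Values give the fluorescence ratio for each switch-domain sequence, averaged from per-cluster ratios of summed target-cycle to summed buffer-cycle Cy3 intensity. The Cy3-labelled switching-strand clusters sat on a modified Illumina MiSeq flow-cell, were annealed to 100 nM quencher-labelled ATP aptamer, and were imaged in selection buffer, then after 15 min with 500 uM ATP at 22 °C. Five cycles ran with NaOH stripping and re-annealing between them, and clusters outside 100-1000 RFU were excluded.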
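Also: ATP exposure 15 min at 22 °C before imaging.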

Sequence	switch fluorescence ratio
GCCCGATTGG	0.986
GCCCGCGCGG	1.01
GCCCGGACTT	1.04
GCCCGTGGCA	0.982
GCCCGTTGGT	1.01
GCCCGTTGTT	1.01
GCCCTATAA	0.958
GCCCTGGACT	0.944
GCCCTTCTCC	1.24
GCCCTTTATG	0.972
GCCGAAAGAA	1.28
GCCGAAATG	1.07
GCCGAATGG	0.987
GCCGAATTCC	1.05
GCCGATACTC	2.21
GCCGCAAAAG	2.3
GCCGCCCTTA	1.08
GCCGCCGTAT	0.999
GCCGCCGTGC	1.11
GCCGCGAAAA	1.04
GCCGCGCAGC	1.04
GCCGCGTAGG	0.981
GCCGCTGTGT	1.15
GCCGGACGCG	1.02
GCCGGATACT	1

Sequence	switch fluorescence ratio
GCCGGCCCAT	0.996
GCCGGCTGAA	0.981
GCCGGCTTAT	0.974
GCCGGGACAC	1.14
GCCGGTAGCG	0.998
GCCGTATGTT	1.01
GCCGTGAGAC	2.12
GCCGTGCTAC	1.09
GCCTAAGCTA	1
GCCTAAGTTA	1.03
GCCTAATTCA	0.945
GCCTACCGCT	1.42
GCCTACCTCT	1.1
GCCTACGGGG	1.03
GCCTAGGTAA	1.01
GCCTATCAGT	0.993
GCCTATCGAC	1.03
GCCTATGATG	0.972
GCCTCACTCA	1.07
GCCTCGACGT	1.04
GCCTCTAGCA	4.17
GCCTGAACCG	1.22
GCCTGAACTG	1.07
GCCTGAGTAT	0.989
GCCTGCATCC	1.26

Sequence	switch fluorescence ratio
GCCTGCCGTA	0.996
GCCTGCCGTG	1.02
GCCTGCGCTA	4.18
GCCTGCGTGC	1.01
GCCTGCGTTA	1.08
GCCTGGAGCA	1.1
GCCTGGCCAC	1.02
GCCTGGGATG	0.995
GCCTGTAGTT	1.03
GCCTGTGGTT	0.987
GCCTTAATGG	0.96
GCCTTAATTG	0.987
GCCTTCGCTG	1.13
GCCTTGAGAG	0.985
GCCTTGTCGC	0.987
GCCTTTATT	1.01
GCCTTTCGGT	1
GCCTTTTAGT	1
GCCTTTTGAA	0.956
GCGAAAATCA	0.992
GCGAAATTAG	1.06
GCGAACACGA	1.15
GCGAAGAACC	0.968
GCGAAGAACG	1.02
GCGAAGGGAG	0.981

Sequence	switch fluorescence ratio
GCGAATAACT	1.05
GCGAATTTCG	1.01
GCGACACAGG	1.58
GCGACTAGGA	1.02
GCGACTCAAC	1.85
GCGACTGC	1.07
GCGACTGTGG	1.05
GCGACTTGTA	0.985
GCGAGAATCG	1.01
GCGAGCCTAT	0.952
GCGAGGGACT	1.01
GCGAGTAAGA	1.04
GCGAGTTATA	1.01
GCGATACACG	1.19
GCGATAGGGG	1.08
GCGATCGGT	0.988
GCGATGAGAT	1.02
GCGATTGACG	0.833
GCGATTGCGA	0.964
GCGATTGTAT	0.99
GCGCAAGCTT	1.03
GCGCAGAGGA	0.998
GCGCCAGGAC	1.6
GCGCCATAGG	1.03
GCGCCCCGAG	0.986

Sequence	switch fluorescence ratio
GCGCCGAAAC	1.07
GCGCCGCCCA	1.01
GCGCCTAAGA	1.07
GCGCCTTCA	1.31
GCGCGAGTAT	1.01
GCGCGCCCTA	1.02
GCGCGGGACC	1.08
GCGCGTGAA	1.04
GCGCGTTGTC	1.04
GCGCTACGTT	1.04
GCGCTGCGGT	1.02
GCGCTTAGTG	1.11
GCGCTTCTAG	0.985
GCGCTTTAAA	1.06
GCGGAATCAA	1.02
GCGGACTAAG	1.04
GCGGAGCCCA	0.985
GCGGAGTGCA	1.03
GCGGATAATG	0.968
GCGGATAGGG	1.05
GCGGATCCGC	1.01
GCGGCAGCAT	0.994
GCGGCCCCTT	1.01
GCGGCCCGGC	1.02
GCGGCCTCAA	0.982

Sequence	switch fluorescence ratio
GCGGCCTTCA	1.03
GCGGCGGGTA	1.05
GCGGCTATTA	0.952
GCGGCTTTTA	0.999
GCGGGAACTC	1.02
GCGGGGCACC	0.991
GCGGGGGCAC	0.993
GCGGGGTCGC	0.939
GCGGGGTG	1.03
GCGGTACGGG	1.07
GCGGTCAGTC	0.988
GCGGTGCCTC	0.988
GCGGTGTCAA	0.996
GCGGTTAAAC	1.02
GCGGTTAAGC	0.974
GCGGTTAATG	0.952
GCGGTTAGAT	1.36
GCGGTTCCAA	0.96
GCGGTTTACT	0.955
GCGTAACTT	0.991
GCGTACAATG	1
GCGTACATTA	1.02
GCGTACCAAG	1.02
GCGTACGCGT	0.969
GCGTAGAACA	0.967

Sequence	switch fluorescence ratio
GCGTAGACCC	1.02
GCGTAGGATC	1.08
GCGTAGGGCT	0.995
GCGTAGGGGC	0.938
GCGTATAAGG	0.947
GCGTATGAGG	0.983
GCGTATGTGT	0.996
GCGTCAAACT	1.03
GCGTCACTGG	0.986
GCGTCCTTTT	0.999
GCGTCGTGGG	1.01
GCGTCTGCTT	0.989
GCGTCTGGGA	1.02
GCGTCTGTG	0.988
GCGTCTTGGA	0.992
GCGTGACGAG	1.04
GCGTGAGCTT	1.05
GCGTGCAACA	0.969
GCGTGCGCGG	0.993
GCGTGGACTT	1.03
GCGTGGTAAC	0.924
GCGTGTGAAG	1.03
GCGTTACGAT	1.09
GCGTTACTCT	1.31
GCGTTAGACC	0.989

Sequence	switch fluorescence ratio
GCGTTAGGT	0.981
GCGTTAGTCC	1.06
GCGTTTAAAA	1.01
GCGTTTTAGT	0.984
GCGTTTTATC	1.03
GCTAATACCG	0.959
GCTAATACGA	2.58
GCTAATCCGT	0.997
GCTAATGATG	0.991
GCTAATGTAT	1.01
GCTACCAGAC	1.72
GCTACCCTGT	1.06
GCTACCCTTG	1.08
GCTACCTTGT	1.01
GCTACGAATG	1.04
GCTACGAGAT	1.27
GCTACGCATT	2.76
GCTACGTCGT	0.966
GCTACTCGCT	1.09
GCTACTCGGT	1.03
GCTACTCTGC	1.03
GCTAGACGGT	1.02
GCTAGAGAAT	1
GCTAGAGACA	1.05
GCTAGATAAA	0.966
